According to article PMC9911399, “Two distinct binding modes provide the RNA-binding protein RbFox with extraordinary sequence specificity”:
Positions count from the first letter of the chain named. Some of the results follow.

T1: RBFOX1 RRM (Homo sapiens, UniProt Q9NWB1 109-208)
T1 sequence: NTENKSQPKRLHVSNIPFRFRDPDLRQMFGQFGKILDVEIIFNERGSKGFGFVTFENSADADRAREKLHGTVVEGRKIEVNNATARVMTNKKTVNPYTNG

B1: GAAAUUG (DNA:RNA)
RNA: GGGAGACCGGAAUUCAGAUUGUCCGAAAUUGUUAAAUCCCGUCGUAGCCACCA
DNA 1: CAATCTGAATTCCGGTCTCCC
DNA 2: TGGTGGCTACGACGGGATT
B2: AUCUCUG (DNA:RNA)
RNA: B1 RNA with G25A, A26U, A27C, A28U, U29C
DNA 1: CAATCTGAATTCCGGTCTCCC
DNA 2: TGGTGGCTACGACGGGATT
B3: CGGCGGU (DNA:RNA)
RNA: GGGAGACCGGAAUUCAGAUUGUCCCGGCGGUUUAAAUCCCGUCGUAGCCACCA
DNA 1: CAATCTGAATTCCGGTCTCCC
DNA 2: TGGTGGCTACGACGGGATT
B4: UUGAGGC (DNA:RNA)
RNA: B3 RNA with C25U, G26U, C28A, U31C
DNA 1: CAATCTGAATTCCGGTCTCCC
DNA 2: TGGTGGCTACGACGGGATT
B5: CGUAACU (DNA:RNA)
RNA: B3 RNA with G27U, C28A, G29A, G30C
DNA 1: CAATCTGAATTCCGGTCTCCC
DNA 2: TGGTGGCTACGACGGGATT
B6: CAGUCCA (DNA:RNA)
RNA: B3 RNA with G26A, C28U, G29C, G30C, U31A
DNA 1: CAATCTGAATTCCGGTCTCCC
DNA 2: TGGTGGCTACGACGGGATT
B7: CAGAGCU (DNA:RNA)
RNA: B3 RNA with G26A, C28A, G30C
DNA 1: CAATCTGAATTCCGGTCTCCC
DNA 2: TGGTGGCTACGACGGGATT
B8: UGUCCCA (DNA:RNA)
RNA: B3 RNA with C25U, G27U, G29C, G30C, U31A
DNA 1: CAATCTGAATTCCGGTCTCCC
DNA 2: TGGTGGCTACGACGGGATT
B9: ACAACUC (DNA:RNA)
RNA: B1 RNA with G25A, A26C, U29C, G31C
DNA 1: CAATCTGAATTCCGGTCTCCC
DNA 2: TGGTGGCTACGACGGGATT

target: T1, RBFOX1 RRM; experiment: EMSA; HiTS-Eq, 1 nM pool, 10 min; buffer printed only for the single-RNA assays: 10 mM Tris pH 7.5, 150 mM NaCl, 3.4 mM EDTA, 0.001% NP-40, 30 C; settings: tags: His6 N-terminal (pET28a); label: 5' 32P
Procedure, shortened: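 Purified wild-type or mutant RbFox RRM at increasing concentrations was equilibrated with 1 nM of 5′-radiolabelled RNA carrying 7 randomized nucleotides for 10 min in 50 µL. Unbound RNA was separated by 8% native PAGE and sequenced. Relative association constants came from read-count changes of each RNA species compared with the control reaction, normalised to the cognate motif.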

Binder	binding signal
B1	0.0105 KA relative to UGCAUGU
B2	0.00831 KA relative to UGCAUGU
B3	0.0226 KA relative to UGCAUGU
B4	0.0124 KA relative to UGCAUGU
B5	0.00439 KA relative to UGCAUGU
B6	0.00214 KA relative to UGCAUGU
B7	0.00456 KA relative to UGCAUGU
B8	0.0046 KA relative to UGCAUGU
B9	0.00147 KA relative to UGCAUGU
